This is one part of the list. The full chains were built here from the parent and the listed change. Values near 0.05 are background.
B1: TEV protease; numbered along this chain (parent)
chain: MGESLFKGPRDYNPISSSICHLTNESDGHTTSLYGIGFGPFIITNKHLFRRNNGTLVVQSLHGVFKVKDTTTLQQHLVDGRDMIIIRMPKDFPPFPQKLKFREPQREERICLVTTNFQTKSMSSMVSDTSCTFPSGDGIFWKHWIQTKDGQCGSPLVSTRDGFIVGIHSASNFTNTNNYFTSVPKNFMELLTNQEAQQWVSGWRLNADSVLWGGHKVFMVKPEEPFQPVKEATQL

Variants of: B1
Assay: raw area under fraction-flipped curve 0-4 h after induction (AUC4h, not background-subtracted), DNA-recorder readout of cleavage of the substrate (dimensionless); higher = more cleavage of the substrate by the protease variant
Settings: temperature: 34 °C; time window: 0-4 h after rhamnose induction
Experimental: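 In vivo DNA recorder in E. coli TOP10(DE3) ΔrhaA at 34 °C. Each TEVp single-site mutant (parent TEVp 0) is paired with a single-site variant of the 7-mer TEVs (canonical ENLYFQ|S). The substrate sits between flexible linkers in a Bxb1-sfGFP-TEVs-SsrA fusion, so cleavage stabilises Bxb1 and speeds flipping of a recombination array, read by NGS. The value is the raw area under the fraction-flipped curve over 0-4 h after rhamnose induction (AUC4h), with ≥20 reads per time point. It is not background-subtracted; inactive controls average about 0.047.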
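Also: Bxb1 expression induced with 0.2% (w/v) L-rhamnose at OD600 near 0.5, cultures sampled hourly, flipped fraction per protease–substrate barcode pair counted by paired-end Illumina sequencing.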

Variant	area with substrate ENAYFQS	area with substrate ENCYFQS	area with substrate ENDYFQS	area with substrate ENEYFQS	area with substrate ENGYFQS	area with substrate ENHYFQS	area with substrate ENKYFQS	area with substrate ENNYFQS	area with substrate ENQYFQS	area with substrate ENRYFQS	area with substrate ENSYFQS	area with substrate ENTYFQS	area with substrate ENVYFQS	area with substrate ENYYFQS	area with substrate ENFYFQS	area with substrate ENMYFQS	area with substrate ENPYFQS	area with substrate ENWYFQS	area with substrate ENIYFQS
MGENLFKGPRDYNPISSSICHLTNESDGHTTSLYGIGFGPFIITNKHLFRRNNGTLVVQSLHGVFKVKDTTTLQQHLVDGRDMIIIRMPKDFPPFPQKLKFREPQREERICLVTTNFQTKSMSSMVSDTSCTFPSGDGIFWKHWIQTKDGQCGSPLVSTRDGFIVGIHSASNFTNTNNYFTSVPKNFMELLTNQEAQQWVSGWRLNADSVLWGGHKVFMVKPEEPFQPVKEATQL [S4N]	0.0592	0.0658	0.0555	0.0501	0.0594	0.057	0.0283	0.059	0.0611	0.0571	0.0602	0.0627	0.0693	0.047					
MGEMLFKGPRDYNPISSSICHLTNESDGHTTSLYGIGFGPFIITNKHLFRRNNGTLVVQSLHGVFKVKDTTTLQQHLVDGRDMIIIRMPKDFPPFPQKLKFREPQREERICLVTTNFQTKSMSSMVSDTSCTFPSGDGIFWKHWIQTKDGQCGSPLVSTRDGFIVGIHSASNFTNTNNYFTSVPKNFMELLTNQEAQQWVSGWRLNADSVLWGGHKVFMVKPEEPFQPVKEATQL [S4M]	0.065	0.0684	0.0752	0.0622		0.0657	0.0553	0.0217	0.0584		0.057	0.0659	0.0711		0.0575	0.0798	0.0617	0.0573	
MGEGLFKGPRDYNPISSSICHLTNESDGHTTSLYGIGFGPFIITNKHLFRRNNGTLVVQSLHGVFKVKDTTTLQQHLVDGRDMIIIRMPKDFPPFPQKLKFREPQREERICLVTTNFQTKSMSSMVSDTSCTFPSGDGIFWKHWIQTKDGQCGSPLVSTRDGFIVGIHSASNFTNTNNYFTSVPKNFMELLTNQEAQQWVSGWRLNADSVLWGGHKVFMVKPEEPFQPVKEATQL [S4G]	0.0658		0.0499	0.0582	0.0589	0.0654	0.0531	0.064	0.061	0.0526	0.0803	0.0635	0.0985	0.0644	0.0605		0.0619	0.0562	0.119
MGESLFKGPRQYNPISSSICHLTNESDGHTTSLYGIGFGPFIITNKHLFRRNNGTLVVQSLHGVFKVKDTTTLQQHLVDGRDMIIIRMPKDFPPFPQKLKFREPQREERICLVTTNFQTKSMSSMVSDTSCTFPSGDGIFWKHWIQTKDGQCGSPLVSTRDGFIVGIHSASNFTNTNNYFTSVPKNFMELLTNQEAQQWVSGWRLNADSVLWGGHKVFMVKPEEPFQPVKEATQL [D11Q]	0.0575	0.0653	0.0582	0.0635	0.0559	0.0603	0.0612	0.0685	0.0638		0.0672	0.059	0.0702		0.0673	0.083	0.0496		0.0866
MGESLFKGPRAYNPISSSICHLTNESDGHTTSLYGIGFGPFIITNKHLFRRNNGTLVVQSLHGVFKVKDTTTLQQHLVDGRDMIIIRMPKDFPPFPQKLKFREPQREERICLVTTNFQTKSMSSMVSDTSCTFPSGDGIFWKHWIQTKDGQCGSPLVSTRDGFIVGIHSASNFTNTNNYFTSVPKNFMELLTNQEAQQWVSGWRLNADSVLWGGHKVFMVKPEEPFQPVKEATQL [D11A]	0.0634	0.0765	0.0626	0.0617	0.043	0.0639	0.0626	0.0808	0.0497	0.0561	0.0604	0.0626	0.0785	0.0691	0.0353	0.0675	0.0555	0.0388	0.0946
MGESLFKGPRSYNPISSSICHLTNESDGHTTSLYGIGFGPFIITNKHLFRRNNGTLVVQSLHGVFKVKDTTTLQQHLVDGRDMIIIRMPKDFPPFPQKLKFREPQREERICLVTTNFQTKSMSSMVSDTSCTFPSGDGIFWKHWIQTKDGQCGSPLVSTRDGFIVGIHSASNFTNTNNYFTSVPKNFMELLTNQEAQQWVSGWRLNADSVLWGGHKVFMVKPEEPFQPVKEATQL [D11S]	0.0636		0.0656	0.0492		0.0616		0.0654	0.0582	0.0512	0.0628	0.0583	0.0642	0.0526	0.0624	0.0792	0.0612	0.065	0.0887
MGESLFKGPRLYNPISSSICHLTNESDGHTTSLYGIGFGPFIITNKHLFRRNNGTLVVQSLHGVFKVKDTTTLQQHLVDGRDMIIIRMPKDFPPFPQKLKFREPQREERICLVTTNFQTKSMSSMVSDTSCTFPSGDGIFWKHWIQTKDGQCGSPLVSTRDGFIVGIHSASNFTNTNNYFTSVPKNFMELLTNQEAQQWVSGWRLNADSVLWGGHKVFMVKPEEPFQPVKEATQL [D11L]	0.0597	0.0662	0.0643	0.0642	0.0634	0.0642	0.0608	0.0632	0.0655	0.0488	0.063	0.0563	0.0774	0.0501	0.0643	0.0567	0.0676	0.057	0.0808
MMESLFKGPRDYNPISSSICHLTNESDGHTTSLYGIGFGPFIITNKHLFRRNNGTLVVQSLHGVFKVKDTTTLQQHLVDGRDMIIIRMPKDFPPFPQKLKFREPQREERICLVTTNFQTKSMSSMVSDTSCTFPSGDGIFWKHWIQTKDGQCGSPLVSTRDGFIVGIHSASNFTNTNNYFTSVPKNFMELLTNQEAQQWVSGWRLNADSVLWGGHKVFMVKPEEPFQPVKEATQL [G2M]	0.0543	0.0842	0.0593						0.0702										
MGESLFKGPCDYNPISSSICHLTNESDGHTTSLYGIGFGPFIITNKHLFRRNNGTLVVQSLHGVFKVKDTTTLQQHLVDGRDMIIIRMPKDFPPFPQKLKFREPQREERICLVTTNFQTKSMSSMVSDTSCTFPSGDGIFWKHWIQTKDGQCGSPLVSTRDGFIVGIHSASNFTNTNNYFTSVPKNFMELLTNQEAQQWVSGWRLNADSVLWGGHKVFMVKPEEPFQPVKEATQL [R10C]	0.0596		0.0529		0.0678			0.0677		0.0537	0.0616	0.0675	0.0722		0.0561		0.0499		

From the supplement of paper PMC12217912
